# Target: Recombinant heterodimeric HCV NS3/NS4A protease (strain 1a) (Hepatitis C virus genotype 1a, UniProt P27958)
# Assay: Spectrophotometric assay for HCV serine protease inhibitory activity (chromogenic ester substrates)
# Assay type: biochemical
# Conditions: Table 3, sulfone compounds; HCV serine protease; read-out: Ki* range
row,SMILES,Ki
1,C#CCCC(NC(=O)[C@@H]1[C@@H]2[C@H](CN1C(=O)[C@@H](NC(=O)NC1(CS(=O)(=O)C(C)(C)C)CCCCC1)C(C)(C)C)C2(C)C)C(=O)C(N)=O (stereo partly shown) [Compound 266],< 75 nM
2,CC(C)(C)[C@H](NC(=O)NC1(CCS(=O)(=O)C(C)(C)C)CCCCC1)C(=O)N1C[C@H]2[C@@H]([C@H]1C(=O)NC(CC1CC1)C(=O)C(N)=O)C2(C)C (stereo partly shown) [Compound 267],75 to 250 nM
3,C#CCCC(NC(=O)[C@@H]1[C@@H]2[C@H](CN1C(=O)[C@@H](NC(=O)NC1(CCS(=O)(=O)C(C)(C)C)CCCCC1)C(C)(C)C)C2(C)C)C(=O)C(=O)NCC=C (stereo partly shown) [Compound 268],75 to 250 nM
4,C#CCCC(NC(=O)[C@@H]1[C@@H]2[C@H](CN1C(=O)[C@@H](NC(=O)NC1(CS(=O)(=O)C(C)(C)C)CCCCC1)C1CCCCC1)C2(C)C)C(=O)C(=O)NCC=C (stereo partly shown) [Compound 269],< 75 nM
5,CC1(C)[C@@H]2[C@@H](C(=O)NC(CC3CC3)C(=O)C(N)=O)N(C(=O)[C@@H](NC(=O)NC3(CS(=O)(=O)C(C)(C)C)CCCCC3)C3Cc4ccccc4C3)C[C@@H]21 (stereo partly shown) [Compound 270],< 75 nM
6,CC1(C)[C@@H]2[C@@H](C(=O)NC(CC3CC3)C(=O)C(N)=O)N(C(=O)[C@@H](NC(=O)NC3(CS(=O)(=O)C(C)(C)C)CCCCC3)C3CCCCC3)C[C@@H]21 (stereo partly shown) [Compound 271],< 75 nM
7,C#CCCC(NC(=O)[C@@H]1[C@@H]2[C@H](CN1C(=O)[C@@H](NC(=O)NC1(CS(=O)(=O)C(C)(C)C)CCCCC1)C(C)(C)C)C21CC1)C(=O)C(=O)NCC=C (stereo partly shown) [Compound 272],< 75 nM
8,C=CCCNC(=O)C(=O)C(CCC=C)NC(=O)[C@@H]1[C@@H]2[C@H](CN1C(=O)[C@@H](NC(=O)NC1(CS(=O)(=O)C(C)(C)C)CCCCC1)C(C)(C)C)C2(C)C (stereo partly shown) [Compound 273],< 75 nM
9,CC(C)(C)[C@H](NC(=O)NC1(CS(=O)(=O)C(C)(C)C)CCCCC1)C(=O)N1C[C@H]2[C@@H]([C@H]1C(=O)NC(C(=O)C(N)=O)C1CCC1)C2(C)C (stereo partly shown) [Compound 274],< 75 nM
10,C=CCNC(=O)C(=O)C(CCCC)NC(=O)[C@@H]1[C@@H]2[C@H](CN1C(=O)[C@@H](NC(=O)NC1(CS(=O)(=O)C(C)(C)C)CCCCC1)C(C)(C)C)C2(C)C (stereo partly shown) [Compound 275],< 75 nM
11,C=CCNC(=O)C(=O)C(CCC)NC(=O)[C@@H]1[C@@H]2[C@H](CN1C(=O)[C@@H](NC(=O)NC1(CS(=O)(=O)C(C)(C)C)CCCCC1)C1Cc3ccccc3C1)C2(C)C (stereo partly shown) [Compound 276],< 75 nM
12,C#CCCC(NC(=O)[C@@H]1[C@@H]2[C@H](CN1C(=O)[C@@H](NC(=O)NC1(CS(=O)(=O)C(C)(C)C)CCCCC1)C1Cc3ccccc3C1)C2(C)C)C(=O)C(=O)NCC=C (stereo partly shown) [Compound 277],< 75 nM
13,CC(C)(C)[C@H](NC(=O)NC1(CS(=O)(=O)C(C)(C)C)CCCCC1)C(=O)N1C[C@H]2[C@@H]([C@H]1C(=O)NC(CC1CCC1)C(=O)C(N)=O)C21CCCC1 (stereo partly shown) [Compound 278],< 75 nM
14,CC(C)(C)[C@H](NC(=O)NC1(CS(=O)(=O)C(C)(C)C)CCCCC1)C(=O)N1C[C@H]2[C@@H]([C@H]1C(=O)NC(CC1CCC1)C(=O)C(N)=O)C21CC1 (stereo partly shown) [Compound 279],< 75 nM
15,CC(C)CCS(=O)(=O)CC1(NC(=O)N[C@H](C(=O)N2C[C@H]3[C@@H]([C@H]2C(=O)NC(CC2CC2)C(=O)C(N)=O)C3(C)C)C(C)(C)C)CCCCC1 (stereo partly shown) [Compound 280],< 75 nM
16,C#CCCC(NC(=O)[C@@H]1[C@@H]2[C@H](CN1C(=O)[C@@H](NC(=O)NC1(CS(=O)(=O)CCC(C)C)CCCCC1)C(C)(C)C)C2(C)C)C(=O)C(=O)NCC=C (stereo partly shown) [Compound 281],< 75 nM
17,CC(C)CCS(=O)(=O)CC1(NC(=O)N[C@H](C(=O)N2C[C@H]3[C@@H]([C@H]2C(=O)NC(CC2CCC2)C(=O)C(N)=O)C3(C)C)C(C)(C)C)CCCCC1 (stereo partly shown) [Compound 282],< 75 nM
18,C=CCNC(=O)C(=O)C(CCC)NC(=O)[C@@H]1[C@@H]2[C@H](CN1C(=O)[C@@H](NC(=O)NC1(CS(=O)(=O)CCC(C)C)CCCCC1)C1Cc3ccccc3C1)C2(C)C (stereo partly shown) [Compound 283],< 75 nM
19,C=CCNC(=O)C(=O)C(CC1CC1)NC(=O)[C@@H]1[C@@H]2[C@H](CN1C(=O)[C@@H](NC(=O)NC1(CS(=O)(=O)C(C)(C)C)CCCCC1)C1CCCCC1)C2(C)C (stereo partly shown) [Compound 284],< 75 nM
20,C=CCCNC(=O)C(=O)C(CCC=C)NC(=O)[C@@H]1[C@@H]2[C@H](CN1C(=O)[C@@H](NC(=O)NC1(CS(=O)(=O)CCC(C)C)CCCCC1)C(C)(C)C)C2(C)C (stereo partly shown) [Compound 285],< 75 nM
21,C=CCNC(=O)C(=O)C(CC1CC1)NC(=O)[C@@H]1[C@@H]2[C@H](CN1C(=O)[C@@H](NC(=O)NC1(CS(=O)(=O)C(C)(C)C)CCCCC1)C1Cc3ccccc3C1)C2(C)C (stereo partly shown) [Compound 286],< 75 nM
22,C=CCNC(=O)C(=O)C(CCC)NC(=O)[C@@H]1[C@@H]2[C@H](CN1C(=O)[C@@H](NC(=O)N[C@@](C)(CC(C)C)CS(=O)(=O)C(C)(C)C)C(C)(C)C)C2(C)C (stereo partly shown) [Compound 287],> 250 nM

row,SMILES,Ki
1,C=CCNC(=O)C(=O)C(CC1CC1)NC(=O)[C@@H]1[C@@H]2[C@H](CN1C(=O)[C@@H](NC(=O)N[C@@](C)(CC(C)C)CS(=O)(=O)C(C)(C)C)C(C)(C)C)C2(C)C (stereo partly shown) [Compound 288],> 250 nM
2,C#CCCC(NC(=O)[C@@H]1[C@@H]2[C@H](CN1C(=O)[C@@H](NC(=O)N[C@@](C)(CC(C)C)CS(=O)(=O)C(C)(C)C)C(C)(C)C)C2(C)C)C(=O)C(=O)NCC=C (stereo partly shown) [Compound 289],75 to 250 nM
3,C=CCNC(=O)C(=O)C(CC1CC1)NC(=O)[C@@H]1[C@@H]2[C@H](CN1C(=O)[C@@H](NC(=O)NC1(CS(=O)(=O)C(C)(C)C)CCCCC1)C1(C)CCCCC1)C2(C)C (stereo partly shown) [Compound 290],< 75 nM
4,C=CCNC(=O)C(=O)C(CC1CC1)NC(=O)[C@@H]1[C@@H]2[C@H](CN1C(=O)[C@@H](NC(=O)NC1(CS(=O)(=O)C(C)(C)C)CCCCC1)C(C)(C)C)C21CC1 (stereo partly shown) [Compound 291],< 75 nM
5,C=CCNC(=O)C(=O)C(CC1CC1)NC(=O)[C@@H]1[C@@H]2[C@H](CN1C(=O)[C@@H](NC(=O)NC1(CS(=O)(=O)C(C)(C)C)CCCCC1)C(C)(C)C)C21CCCC1 (stereo partly shown) [Compound 292],< 75 nM
6,C=CCNC(=O)C(=O)C(CC1CC1)NC(=O)[C@@H]1[C@@H]2[C@H](CN1C(=O)[C@@H](NC(=O)NC1(CS(=O)(=O)CCC(C)C)CCCCC1)C1CCCCC1)C2(C)C (stereo partly shown) [Compound 293],< 75 nM
7,C=CCNC(=O)C(=O)C(CC1CC1)NC(=O)[C@@H]1[C@@H]2[C@H](CN1C(=O)[C@@H](NC(=O)NC1(CS(=O)(=O)CCC(C)C)CCCCC1)C1Cc3ccccc3C1)C2(C)C (stereo partly shown) [Compound 294],< 75 nM
8,C=CCNC(=O)C(=O)C(NC(=O)[C@@H]1[C@@H]2[C@H](CN1C(=O)[C@@H](NC(=O)NC1(CS(=O)(=O)C(C)(C)C)CCCCC1)C(C)(C)C)C2(C)C)C1CCC1 (stereo partly shown) [Compound 295],75 to 250 nM
9,CC(C)C[C@@](C)(CS(=O)(=O)C(C)(C)C)NC(=O)N[C@H](C(=O)N1C[C@H]2[C@@H]([C@H]1C(=O)NC(CC1CCC1)C(=O)C(N)=O)C2(C)C)C(C)(C)C (stereo partly shown) [Compound 297],< 75 nM
10,C=CCNC(=O)C(=O)C(CC1CC1)NC(=O)[C@@H]1[C@@H]2[C@H](CN1C(=O)[C@@H](NC(=O)NC1(CS(=O)(=O)CCC(C)C)CCCCC1)C(C)(C)C)C2(C)C (stereo partly shown) [Compound 298],< 75 nM
11,CC(C)(C)[C@H](NC(=O)NC1(CS(=O)(=O)C(C)(C)C)CCCCC1)C(=O)N1C[C@H](OCc2ccccc2)C[C@H]1C(=O)NC(CC1CCC1)C(=O)C(N)=O (stereo partly shown) [Compound 299],< 75 nM
12,CC(C)C[C@@](C)(CS(=O)(=O)C(C)(C)C)NC(=O)N[C@H](C(=O)N1C[C@H]2[C@@H]([C@H]1C(=O)NC(CC1CC1)C(=O)C(N)=O)C2(C)C)C(C)(C)C (stereo partly shown) [Compound 300],75 to 250 nM
13,C=CCNC(=O)C(=O)C(CCC)NC(=O)[C@@H]1C[C@@H](S(C)(=O)=O)CN1C(=O)[C@@H](NC(=O)OC(C)(C)C)C1CCCCC1 (stereo partly shown) [Compound 301],< 75 nM
14,CC(C)(C)O[C@@H]1C[C@@H](C(=O)NC(CC2CCC2)C(=O)C(N)=O)N(C(=O)[C@@H](NC(=O)NC2(CS(=O)(=O)C(C)(C)C)CCCCC2)C2CCCCC2)C1 (stereo partly shown) [Compound 302],< 75 nM
15,CC(C)(C)S(=O)(=O)CC1(NC(=O)N[C@H](C(=O)N2C[C@H](OCc3ccccc3)C[C@H]2C(=O)NC(CC2CCC2)C(=O)C(N)=O)C2CCCCC2)CCCCC1 (stereo partly shown) [Compound 303],75 to 250 nM
16,CC(C)(C)[C@H](NC(=O)NC1(CS(=O)(=O)C(C)(C)C)CCCCC1)C(=O)N1C[C@H]2[C@@H]([C@H]1C(=O)NC(C(=O)C(N)=O)C1CCC1)C21CC1 (stereo partly shown) [Compound 304],> 250 nM
17,CC(C)(C)[C@H](NC(=O)NC1(C2CCCS2(=O)=O)CCCCC1)C(=O)N1C[C@H]2[C@@H]([C@H]1C(=O)NC(CC1CCC1)C(=O)C(N)=O)C2(C)C (stereo partly shown) [Compound 305],75 to 250 nM
18,CC(C)(C)[C@H](NC(=O)NC1(C2CCCS2(=O)=O)CCCCC1)C(=O)N1C[C@H]2[C@@H]([C@H]1C(=O)NC(CC1CC1)C(=O)C(N)=O)C2(C)C (stereo partly shown) [Compound 306],< 75 nM
19,C=CCNC(=O)C(=O)C(CC1CC1)NC(=O)[C@@H]1[C@@H]2[C@H](CN1C(=O)[C@@H](NC(=O)NC1(C3CCCS3(=O)=O)CCCCC1)C(C)(C)C)C2(C)C (stereo partly shown) [Compound 307],< 75 nM
20,CC(C)(C)[C@H](NC(=O)NC1(CS(=O)(=O)C(C)(C)C)CCCCC1)C(=O)N1C[C@H]2[C@@H]([C@H]1C(=O)NC(C(=O)C(N)=O)C1CCC1)C21CCCC1 (stereo partly shown) [Compound 308],< 75 nM
21,CC(C)CCS(=O)(=O)CC1(NC(=O)N[C@H](C(=O)N2C[C@H](OC(C)(C)C)C[C@H]2C(=O)NC(CC2CCC2)C(=O)C(N)=O)C2CCCCC2)CCCCC1 (stereo partly shown) [Compound 309],< 75 nM

# Same assay, conditions: Table 3A; class symbols; read-out: Ki* Range
row,SMILES,Ki
1,CC(=O)CNC(=O)C(=O)C(CC1CC1)NC(=O)[C@@H]1[C@@H]2[C@H](CN1C(=O)[C@@H](NC(=O)NC1(CS(=O)(=O)C(C)(C)C)CCCCC1)C1(C)CCCCC1)C2(C)C (stereo partly shown) [Compound 412],< 75 nM
2,CC1([C@H](NC(=O)NC2(CS(=O)(=O)C(C)(C)C)CCCCC2)C(=O)N2C[C@H]3[C@@H]([C@H]2C(=O)NC(CC2CC2)C(=O)C(=O)NC2CCC2)C3(C)C)CCCCC1 (stereo partly shown) [Compound 413],< 75 nM
3,CCCNC(=O)C(=O)C(CC1CC1)NC(=O)[C@@H]1[C@@H]2[C@H](CN1C(=O)[C@@H](NC(=O)NC1(CS(=O)(=O)C(C)(C)C)CCCCC1)C1(C)CCCCC1)C2(C)C (stereo partly shown) [Compound 414],< 75 nM
